From patent US4536398A, “Antiviral agents” (Meiji Seika Kaisha Ltd., priority 1982, dated 1985)

Assays:
Influenza virus A0 /PR-8 [1] = assay: microbe, parasite or virus in culture; assay type: cell-based
influenza virus A0 /PR-8 [2] = details: oral; for Survival: n=10; for M.S.D. (mean survival days): once a day for five days; for Prolong rate: 1% CMC control = 100
Influenza virus A0 /PR-8 [3] = assay: microbe, parasite or virus in culture; assay type: cell-based; remark: listed apart in the source
influenza virus A0 /PR-8 [4] = details: intraperitoneal, once a day for five days

| SMILES | virucidal activity (in words) (Influenza virus A0 /PR-8 [1]) | IC50 (Influenza virus A0 /PR-8 [1]; unidentified influenza virus, 2 h, read-out: 50% Virucidal conc.) | Survival (influenza virus A0 /PR-8 [2]; 62.5 mg/kg) | M.S.D. (mean survival days) (influenza virus A0 /PR-8 [2]; 62.5 mg/kg) | Prolong rate (influenza virus A0 /PR-8 [2]; 62.5 mg/kg) | Survival (influenza virus A0 /PR-8 [2]; 125 mg/kg) | M.S.D. (mean survival days) (influenza virus A0 /PR-8 [2]; 125 mg/kg) | Prolong rate (influenza virus A0 /PR-8 [2]; 125 mg/kg) | proliferation inhibiting activity (in words) (Influenza virus A0 /PR-8 [3]) | virus proliferation inhibition index (Influenza virus A0 /PR-8 [3]; A0 /PR-8, 50% toxicity conc. / 50% proliferation inhibiting conc., 2880 min) | IC50 (Influenza virus A0 /PR-8 [3]; unidentified influenza virus, 48 h, read-out: 50% Virus proliferation inhibiting conc.) | Grade of Lesion % (influenza virus A0 /PR-8 [4]; 25 mg/kg) | Inhibition percent of consolidation (influenza virus A0 /PR-8 [4]; 25 mg/kg) | Grade of Lesion % (influenza virus A0 /PR-8 [4]; 50 mg/kg) | Inhibition percent of consolidation (influenza virus A0 /PR-8 [4]; 50 mg/kg) | Grade of Lesion % (influenza virus A0 /PR-8 [4]; 100 mg/kg) | Inhibition percent of consolidation (influenza virus A0 /PR-8 [4]; 100 mg/kg) | Survival (influenza virus A0 /PR-8 [2]; 250 mg/kg) | M.S.D. (mean survival days) (influenza virus A0 /PR-8 [2]; 250 mg/kg) | Prolong rate (influenza virus A0 /PR-8 [2]; 250 mg/kg) |
| --- | --- | --- | --- | --- | --- | --- | --- | --- | --- | --- | --- | --- | --- | --- | --- | --- | --- | --- | --- | --- |
| COC(=O)C1CC(O)C(O)C(n2cc(CC#N)c3c(OC)cccc32)O1 (stereo not drawn) [SF-2140] | potent virucidal activity | 3.2 µg/mL (≈ 8.88 µM) | 70% | ≥ 13.5 days | ≥ 106 | 60% | ≥ 13.1 days | ≥ 103 | showed a proliferation inhibiting activity | > 158.7 | 6.3 µg/mL (≈ 17.5 µM) | 42.5% | 49.2% | 36.3% | 56.7% | 36.3% | 56.7% |  |  |  |
| NC12CC3CC(CC(C3)C1)C2 [Amantadine HCl, reference compound] |  |  |  |  |  |  |  |  |  |  |  |  |  | 48.8% | 41.8% | 38.8% | 53.8% | 60% | ≥ 13.6 days | ≥ 107 |

Converted amounts (≈) assume the structure as drawn. Counter-ions that a name gives are not always drawn. Like-named read-outs stand apart in the source and are kept apart here.
